Out of some 360,000 compounds screened, about 25,000 (6.9%) were called active. This list was built around the results that the source calls inconclusive (neither active nor inactive); the mix of calls is not that of the screen. Calls follow the shape of the dose curve; as a rule, active = well fitted inhibition curve with a large enough effect; inconclusive = small, poorly fitted or top-dose-only effect; inactive = flat fitted curve, though single readings scatter. Potencies of inconclusive entries are doubtful fits and often do not repeat.
Molecular target: Luciferin 4-monooxygenase (Photinus pyralis) (UniProt P08659)
Sequence of UniProt P08659 (P08659 whole entry, looked up): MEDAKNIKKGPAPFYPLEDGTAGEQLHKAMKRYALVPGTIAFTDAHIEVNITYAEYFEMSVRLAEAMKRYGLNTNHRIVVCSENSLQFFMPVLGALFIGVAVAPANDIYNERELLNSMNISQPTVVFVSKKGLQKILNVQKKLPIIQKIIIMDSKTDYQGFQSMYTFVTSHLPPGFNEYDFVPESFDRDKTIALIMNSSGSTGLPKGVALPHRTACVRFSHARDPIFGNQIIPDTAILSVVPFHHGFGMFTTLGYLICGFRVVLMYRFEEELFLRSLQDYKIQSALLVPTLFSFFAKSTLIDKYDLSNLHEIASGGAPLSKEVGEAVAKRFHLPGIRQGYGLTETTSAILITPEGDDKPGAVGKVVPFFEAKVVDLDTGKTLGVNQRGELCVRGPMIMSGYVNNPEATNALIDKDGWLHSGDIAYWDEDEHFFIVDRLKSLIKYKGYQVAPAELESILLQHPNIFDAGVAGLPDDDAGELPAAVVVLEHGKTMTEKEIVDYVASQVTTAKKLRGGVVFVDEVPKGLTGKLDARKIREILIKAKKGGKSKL
Assay: qHTS profiling assay for firefly luciferase inhibitor/activator using purifed enzyme and Km concentrations of substrates (counterscreen for miR-21 project); also: nearly all actives have a fitted effect of over 55% in size;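 as to activity change, negative = inhibition: plate controls were vehicle for no effect and reference inhibitor for full effect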
Details: purified FLuc, luminescence inhibition; series mostly up to 57.5 µM; activity change, negative = inhibition: at the top concentration
How it was run: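 Purified P. pyralis luciferase, 10 nM final, with Km-level 10 uM D-luciferin and 10 uM ATP in 50 mM Tris acetate pH 7.5, 10 mM Mg acetate, 0.01% Tween-20, 0.05% BSA; 6-point qHTS titration about 60 µM downward; luminescence read.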
Potency is read from the fitted curve at half-maximal effect; tags tell the direction and shape of the fitted curve.

| SMILES | Potency | activity change, negative = inhibition |
| --- | --- | --- |
| Cc1ccnc(NC(=O)c2cccc(OC(F)F)c2)n1 | inconclusive: 30.1 µM [inhibitor, partial curve, poor fit] |  |
| COc1cccc(NC(=S)Nc2ccc(Br)cc2Cl)c1 | inconclusive: 37.9 µM [inhibitor, partial curve, poor fit] |  |
| Cc1ccc2oc(C(=O)Nc3nonc3C)c(C)c2c1 | active: 7.57 µM |  |
| Fc1ccccc1-c1cc2ncccc2cn1 | inconclusive: 9.53 µM [inhibitor, single point] |  |
| COc1ccc(/C=C2\CC/C(=C\c3ccc(OC)cc3OC)C2=O)c(OC)c1 | inconclusive: 7.57 µM [inhibitor, partial curve, poor fit] |  |
| O=C(OCc1c(F)cccc1Cl)c1cnc(Cl)c(Cl)c1 |  | inactive: -0.351% |
| Cc1cccc(OCC(=O)N/N=C/c2ccc(N(C)C)cc2)c1 | inconclusive: 23.9 µM [inhibitor, partial curve] |  |
| CC(C)COCc1ccc(O)c2ncccc12 |  | inactive: 0.691% |
| CCOc1ccccc1CNC(=O)c1oc2ccc3c(c2c1C)C(=O)CC(C)(C)O3 | inconclusive: 8.49 µM [inhibitor, full curve] |  |
| COc1cccc(NC(=O)CN(C)C(=O)c2ccc(-c3ccc(Cl)cc3)o2)c1 | inconclusive: 0.849 µM [inhibitor, full curve, poor fit] |  |
| Cc1c(C)n(C)c2ccc(C(=O)NCCc3ccco3)cc12 | inconclusive: 21.3 µM [inhibitor, partial curve] |  |
| O=C(Nc1ccc(Cl)cc1[N+](=O)[O-])c1ccc2c(c1)OCCO2 | inconclusive: 0.601 µM [inhibitor, full curve] |  |
| O=C(O)c1ccc(OCc2cn3ccccc3n2)cc1 | inconclusive: 30.1 µM [inhibitor, single point] |  |
| COc1cc(/C=C/C(=O)OCC(=O)Nc2oc(C)c3c(C)n[nH]c(=O)c23)ccc1OC(F)F |  | inactive: 8.52% |
| COc1ccccc1CNC(=O)CCc1c(C)nn(-c2ccc(N3CCCCC3)nn2)c1C |  | inactive: -17.2% |
| COc1ccc(Cc2nc(-c3ccncc3)no2)cc1 | inconclusive: 19 µM [inhibitor, partial curve] |  |
| CCOc1ccc(/C=N/N(C)c2ccccc2)cc1OC | active: 4.78 µM |  |
| O=C(CNC(=O)c1ccccc1)N/N=C/c1ccccc1Cl | inconclusive: 37.9 µM [inhibitor, partial curve, poor fit] |  |
| COc1ccc(NC(=S)NNC(=O)c2nnn(-c3ccccc3)c2C)cc1 | inconclusive: 37.9 µM [inhibitor, partial curve, poor fit] |  |

| SMILES | Potency | activity change, negative = inhibition |
| --- | --- | --- |
| COc1cc(C(=O)N/N=C/c2ccc(OC(=O)c3ccccc3Cl)cc2)ccc1O | inconclusive: 21.3 µM [inhibitor, partial curve] |  |
| CC1=C(C)CC2(SC1)C(=O)N(c1ccccc1)N=C2N (stereo not drawn) | inconclusive: 37.9 µM [inhibitor, partial curve, poor fit] |  |
| CCOc1ccc(CNCc2c(C(=O)O)n(Cc3ccccc3C)c3cc(OC)ccc23)cc1OC |  | inactive: -7.56% |
| Cc1ccc(-c2n[nH]c(S(C)(=O)=O)c2C#N)cc1 | inconclusive: 37.9 µM [inhibitor, single point] |  |
| CN=c1sc(C(=O)Nc2cccc(Cl)c2)cc(=O)n1C | inconclusive: 8.49 µM [inhibitor, single point] |  |
| O=C(CSc1ncc2c(n1)-c1ccccc1N(Cc1ccc(Cl)cc1)S2(=O)=O)c1ccccc1 |  | inactive: 6.53% |
| COc1ccc(N2Cc3ccc(OC)c(OC)c3C2=O)cc1 | active: 4.78 µM |  |
| CN(C(=O)c1cncc(Br)c1)C1C2CC3CC(C2)CC1C3 (stereo not drawn) | inconclusive: 33.8 µM [inhibitor, partial curve, poor fit] |  |
| COc1cc(-c2c(C#N)c(N)nc(SCc3ccncc3)c2C#N)cc(OC)c1OC |  | inactive: -0.0007% |
| CC(C)(C)C(=O)Nc1nnc(SCc2ccc(F)cc2)s1 | inconclusive: 26.9 µM [inhibitor, single point] |  |
| Cc1cc(NC(=O)c2cc(-c3cccs3)on2)no1 | inconclusive: 10.7 µM [inhibitor, partial curve] |  |
| CCCOC(=O)c1c(NC(=O)C2C3C=CC(C3)C2C(=O)O)sc2c1CCC(C)C2 (stereo not drawn) | inconclusive: 37.9 µM [inhibitor, single point] |  |
| CCOC(=O)C1CCN(c2ncnc3c2c(-c2ccccc2)cn3-c2ccc(Cl)cc2)CC1 |  | inactive: -3.61% |
| C/C(=N\NC(=O)c1cc(C)oc1C)c1ccc2ccccc2c1 |  | inactive: -14.6% |
| CC(=O)Nc1cc(-c2nn(C)c(=O)c3ccccc23)ccc1N1CCCCC1 |  | inactive: 4.93% |
| CCc1ccc(NC(=O)COc2coc(CN3CCN(c4ccccc4)CC3)cc2=O)cc1 |  | inactive: 4.58% |
| CCOc1ccc(-c2cc(C(=O)O)c3ccccc3n2)c(OCC)c1 | active: 16.9 µM |  |
| Cc1nn(-c2cc(C)c3ccccc3n2)c2c1C1C(C2)C1(C)C (stereo not drawn) | inconclusive: 19 µM [inhibitor, partial curve] |  |
| Cc1cccc(NCCC(=O)c2ccc(Br)cc2)c1 | inconclusive: 19 µM [inhibitor, single point] |  |

— PubChem BioAssay AID588342 (National Center for Advancing Translational Sciences (NCATS), 2011)
